Results as given in PubChem BioAssay AID1508623 (National Center for Advancing Translational Sciences (NCATS), 2021).
In all, about 48,000 compounds went through this assay and about 450 (0.94%) were called active. Not shown: some 19% with an inconclusive outcome. Calls follow the shape of the dose curve; as a rule, active = well fitted inhibition curve with a large enough effect; inconclusive = small, poorly fitted or top-dose-only effect; inactive = no such curve, though single readings can be large or run the other way. Some of the results follow.

Test: Primary qHTS for Identification of Small Molecule Inhibitors of Huntingtin Promoter Activity; also: nearly all actives have a fitted effect of over 50% in size
Conditions: HEK293 HTT promoter firefly luciferase reporter (activity 0% = vehicle and -100% = no light), 24 h; series mostly up to 57.5 µM; activity change, negative = inhibition: at the top concentration
In short: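 Firefly luciferase signal from promoter-reporter HEK293 cells was scaled between vehicle (0%) and zero RLU (-100%). Compounds were tested at final concentrations of up to 57.5 uM over 24 h at 37 degrees C. PTC124 at 50 uM final served as control inhibitor.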

Activity change, negative = inhibition, inactive:
Cc1cccc(N2CCN(C(=O)Cn3nc(C)n4cccc4c3=O)CC2C)c1 (centres undefined) 12.4%
CCCCN(C)CCCNC(=O)Cn1ncc2c3ccccc3n(Cc3ccccc3)c2c1=O 21.6%
Cc1cccc(NC(=O)CSc2nccn2Cc2ccc(F)cc2)c1C -21.6%
Cc1ccc(C(=O)Nc2cc3c(cc2C)n(C)c(=O)c(=O)n3C)cc1 3.58%
Cc1cc(O)c2c(c1)C(=O)c1cc(O)cc(O)c1C2=O 4.01%
Cc1ccccc1NC(=O)c1ccc2c(c1)c(C)c(C)n2Cc1ccccc1 -24.6%
COCc1nc2ccccc2n1CCOc1cccc(C)c1 -13.8%
COc1ccc(S(=O)(=O)N2CCCN(CC(=O)Nc3ccc(NC(C)=O)cc3)CC2)cc1 -2.17%
COc1ccccc1NC(=O)CSC1=Nc2ccccc2C2=NC(CC(=O)NCc3ccco3)C(=O)N12 (centres undefined) 62.1%
Cc1ccc(NC(=O)CN2C(=O)CCc3cc(S(=O)(=O)N4CCOCC4)ccc32)cc1F -24%
CCc1ccc(-n2nc(C)c3c(C)cc(=O)n(Cc4nc(-c5ccccc5)oc4C)c32)cc1 2.15%
Cn1cc(-c2ccc3nnc(Sc4ccc5ncccc5c4)n3n2)cn1 -1.58%
CCOc1ccc(CNC(=O)C2Cc3ccccc3N2C(=O)CC)cc1OC (centres undefined) 0%
Clc1ccc(Nc2nnc(Cc3ccncc3)c3ccccc23)cc1 -5.91%
CCCc1nn2c(=O)cc(COC(=O)c3ccccc3NC(=O)COc3ccccc3F)nc2s1 0%
Cc1cccc(CNC(=O)CCn2c(=O)c3cccn3c3ccc(F)cc32)c1 3.19%
Cc1nc2c(C(=O)NCCCN(CC(C)C)CC(C)C)cnn2c(C)c1Cc1c(F)cccc1Cl -17.6%
CCCOC(=O)c1c(NC(=O)c2nc3ncccn3n2)sc(C(N)=O)c1C -3.46%
COc1cccc(CNCCNC(=O)c2nonc2N)c1 -5.56%
Cc1cccc(NS(=O)(=O)c2c(C)nc3sccn3c2=O)c1C -20.4%
O=C(NCc1ccccc1Cl)c1cc2c(s1)-c1ccc(Cl)cc1SC2 -0.793%
CCSc1nc2c([nH]c3ccccc32)c(=O)n1CC -14.6%
CCOc1ccccc1NC(=O)N1CC(CC)Oc2ccccc21 (centres undefined) -15.6%
Cc1ccc(C(=O)CSc2nc(-c3ccccc3)nc3c2CCCC3)cc1 0.521%
CCOC(=O)CSc1nc(-c2ccc(C)cc2C)cc(-c2ccccc2)c1C#N -6.84%
COc1cccc(-n2c(=O)c3c(C)c(C)sc3n(CC(=O)NCc3ccc(C)cc3)c2=O)c1 -1.15%
CC(C)(C)C(=O)Nc1cccc(-c2cn3cccnc3n2)c1 31.3%
Cc1cccc(CSc2ncc(Cl)c(C(=O)Nc3sc4c(c3C(N)=O)CCCC4)n2)c1 -5.96%
O=C(Cn1c(=O)nc(-c2ccccc2)c2ccccc21)Nc1cccc(C(F)(F)F)c1 -12.3%
CCOC(=O)c1ccc2c(c1)N(CC(=O)N(C)c1ccccc1)C(=O)c1ccccc1S2 -38%
COc1ccc(-c2cn(-c3ccc(C)cc3)c(S(=O)(=O)CC(=O)Nc3ccc(F)cc3)n2)cc1 -4.19%
COc1ccccc1NC(=O)c1cc(=O)c2ccc(C)c(C)c2o1 22.1% [at 11.5 µM]
Cc1ccc(Cc2c(C)nc3nc(SCC(=O)NC4CCC(C)CC4)nn3c2C)cc1 (centres undefined) -5.65%
O=C(CC1N=C2c3ccccc3N=C(SCc3cccc(Cl)c3)N2C1=O)NCc1ccc2c(c1)OCO2 (centres undefined) -18.4%
CC1CCCCN1C(=O)CSc1n[nH]c(-c2ccccc2Cl)n1 (centres undefined) 20%
CCN(C(=O)c1nn(-c2ccc(OC)c(Cl)c2)c(=O)c2c1c1ccccc1n2C)c1cccc(C(F)(F)F)c1 -19.1%
O=C(CN1C(=O)COc2ccc(Cl)cc21)Nc1ccc(F)cc1 -17.7%
COc1ccc(-c2nc3ccc(NS(=O)(=O)c4ccc(C)cc4)cc3o2)cc1 -15.6%
O=c1[nH]cnc2c1ncn2[C@H]1CC[C@@H](CO)O1 7.55%
O=C(OCc1cc(=O)n2nc(-c3cccs3)sc2n1)c1ccc(Cl)cc1 1.21%
Cc1ccc(Cn2c(C(=O)NCc3ccccc3Cl)cc3sccc32)cc1 -11.5%
Cc1ccc(NC(=O)Cn2ncn3c(cc4ccccc43)c2=O)cc1F -18.4%
COC(=O)c1c(SCC(=O)Nc2cc(OC)cc(OC)c2)[nH]c2ccc(C)cc2c1=O -0.333%
CCC1CCC(C(=O)NC(C(=O)Nc2cccc(OC)c2)C(C)C)CC1 (centres undefined) 8.46%
O=C(CCC(=O)N1CC2CCCN2c2ccccc21)NCc1ccc(Cl)cc1 (centres undefined) -14.6%
CCOc1ccc(CNCc2c(C(=O)O)c(C)n(Cc3cccc(OC)c3)c2C)cc1OC -4.38%
Cc1cccc(NC(=O)CSc2nnc3[nH]c(=O)cc(-c4ccccc4)n23)c1C 56.9%
Cc1nc2nc(CNC(=O)OC(C)(C)C)nn2c(C)c1CCC(=O)NCc1ccc(F)cc1 -2.46%
COc1ccc(C2Nc3ccccc3-c3cc(C)nn32)cc1OC (centres undefined) -9.4%
COC(=O)c1cc2sc(C)cc2n1Cc1cccc(OC)c1 -30%
CCOC(=O)c1c(-c2ccc(OC)cc2)oc2ccc(OCc3ccccc3C)cc12 -1.38%
CCOC(=O)c1c(C)[nH]c(C)c1S(=O)(=O)N1CCCC(C(=O)NCc2cccc(C)c2)C1 (centres undefined) -18.9%
Cc1cccn2c(=O)c(C(=O)NCc3ccc(F)cc3)c(O)nc12 -1.51%
CCN(CC)CCNC(=O)C1CCN(c2nn3cc(-c4ccc(F)cc4)nc3s2)CC1 -4.98%
O=c1cc(-c2ccccc2)nc(SCc2nc(-c3ccccc3Cl)no2)[nH]1 -1.92%
FC1(F)C(F)(F)C(F)(F)C2(F)C(F)(F)C(F)(F)C(F)(F)C(F)(F)C2(F)C1(F)F (centres undefined) 3%
CCOc1cc(C(=O)Nc2cc3c(cc2N2CCOCC2)n(C)c(=O)n3C)cc(OCC)c1OCC -1.13%
CNc1ncnc2c1cnn2-c1ccc(C)c(C)c1 62.5%
Cc1ccccc1CNC(=O)CCCn1c(=O)c2cccn2c2cccnc21 6.91%
Cc1ccc(N2CC(NC(=O)c3cccs3)CC2=O)cc1C (centres undefined) -25.9%
Cc1cccc(NC(=O)c2ccc(-n3cnc4cccnc43)cc2)c1C 11%
Fc1ccc([C@@H]2CCNC[C@H]2COc2ccc3c(c2)OCO3)cc1
Oc1ccccc1-c1nc(/C=C/c2ccccc2Cl)nn1-c1ccccc1 -20.2%
CCc1ccc(C(=O)c2cn(CC(=O)Nc3ccc4c(c3)OCO4)c3ccc(OC)cc3c2=O)cc1 -17.6%
